# Test results taken from PubChem BioAssay AID686978 (National Center for Advancing Translational Sciences (NCATS), 2013).
# Values joined by “and” are separate entries in the source; they are usually repeats but may differ in a detail not shown here. Equal values may be shown once. Among all 420,000 compounds or so, about 64,000 (15%) were called active. The inconclusive results got no clear call from the source; some entries with a clear call stand among them for comparison. Calls come from the whole dose curve; as a rule, active = well fitted inhibition curve with a large enough effect; inconclusive = small, poorly fitted or top-dose-only effect; inactive = flat fitted curve, though single readings scatter. Potencies beside an inconclusive call are fits to weak or partial responses and may not hold up.
# Assay: qHTS for Inhibitors of human tyrosyl-DNA phosphodiesterase 1 (TDP1): qHTS in cells in absence of CPT; note: nearly all actives have a fitted effect of over 55% in size
# Settings: DT40 Tdp1-/- hTDP1 cells, no CPT, ATP luminescence, 48 h; activity change, negative = growth inhibition: at 46.2 µM (top of the series) unless noted
# Method in brief: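 Camptothecin absent (DMSO only). Human TDP1-complemented DT40 knockout cells, 400 cells/well, 37 °C for minimum 48 hr; ATP measured via CellTiter-Glo, 30 min dark incubation, luminescence.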
# % is set by controls: 0 for no effect and ±100 for the full control effect; potency is the fitted concentration of half-maximal effect; tags give direction and shape of the fitted curve.
Structure (SMILES),Potency,"activity change, negative = growth inhibition"
COc1ccc(CN(C2CCCC2)S(=O)(=O)c2ccc(-n3cnnn3)c(OC)c2)cc1OC,"inconclusive: 18.4 µM [inhibitor, single point]",
C=CCNc1nc2ccccc2nc1NS(=O)(=O)c1ccc(Cl)cc1,"inconclusive: 25.9 µM [inhibitor, single point]",
CCOCCCn1c(SCC(=O)Nc2cccc(S(=O)(=O)NC3=NCCCCC3)c2)nc2ccccc2c1=O,"inconclusive: 29.1 µM [inhibitor, single point]",
CCN(CC(=O)NCc1cccs1)C(=O)/C=C/c1ccc(OC)cc1OC,"inconclusive: 10.3 µM [inhibitor, partial curve, poor fit]",
N#Cc1nnn2c1nc(N)c1c(F)cccc12,inactive,
O=C(CN1C(=O)/C(=C/c2ccccc2Cl)SC1=S)NC1CCS(=O)(=O)C1 (stereo not given),inactive,
COc1ccccc1CN1CC[C@@]2(CCCN(C(=O)c3cccc(F)c3)C2)C1,inactive,
COc1ccc(C(=O)Nn2c(C)nnc2-n2nc(C)cc2C)cc1OC,inactive,
CC1(C)NC(=O)N(CC(=O)Nc2ccc(-n3cnnn3)cc2)C1=O,inactive,
COCCCn1c(N)c(-c2nc3ccccc3n2C)c2nc3ccccc3nc21,active: 23.1 µM,
Cc1c(-c2cccc(NC(=O)c3ccco3)c2)nc2ncccn12,inactive,
Cc1ccccc1COc1ccc(/C=C(\C#N)C(N)=O)cc1,inactive,
COc1ccc(-c2noc(-c3ccccc3F)n2)cc1,inactive,
O=C(NCCN1CCN(c2ccccc2)CC1)c1cccn2c(=O)c3cc(Cl)ccc3nc12,active: 18.4 µM,
N#C/C(=C\c1cc(Br)ccc1F)C(=O)NC1CC1,"inconclusive: 29.1 µM [inhibitor, single point]",
Oc1ccccc1-c1cc(-c2ccc(Cl)cc2)n[nH]1,"inconclusive: 29.1 µM [inhibitor, single point]",
COc1ccccc1C(=O)NNC(=O)C(=O)Nc1ccc(C)cc1,"inconclusive: 29.1 µM [inhibitor, single point]",
CCOCCn1ccc2c(OCC(=O)Nc3cccc(F)c3)cccc2c1=O,"inconclusive: 11.6 µM [inhibitor, partial curve]",
CCOc1ccc(C(c2c(C)[nH][nH]c2=O)c2c(C)[nH][nH]c2=O)cc1OC,inactive,
CCOP(=O)(OCC)c1nc(-c2ccccc2Cl)oc1N1CCOCC1,inactive,
COc1ccc(C)cc1Nc1ncnc2c1c(-c1ccccc1)cn2-c1ccc(C)cc1,inactive,
Cc1cccc(N2C(=O)SC(SC(=Nc3ccccc3)Nc3ccccc3)C2=O)c1 (stereo not given),"inconclusive: 9.2 µM [inhibitor, partial curve]",
O=C(Nc1ccc2c(c1)OCCO2)C1CCN(C(=O)c2ccc(Cl)cc2)CC1,"inconclusive: 25.9 µM [inhibitor, single point]",
Cc1cc(SCC(=O)NC2(C#N)CCCCC2)nc2c(C)cccc12,inactive,
Cc1ccc(C2c3c(oc4ccccc4c3=O)C(=O)N2c2nnc(C)s2)cc1 (stereo not given),active: 20.6 µM,

Structure (SMILES),Potency,"activity change, negative = growth inhibition"
Cc1c(C(=O)NC2CCCc3ccccc32)oc2ccc(S(=O)(=O)N3CCCCC3)cc12 (stereo not given),"inconclusive: 5.8 µM [inhibitor, partial curve]",
O=C(CN1CCN(S(=O)(=O)c2ccc(F)cc2)CC1)Nc1ccccc1F,"inconclusive: 29.1 µM [inhibitor, single point]",
COc1ccc(OC)c2sc(N3CCN(C(=O)C4COc5ccccc5O4)CC3)nc12 (stereo not given),active: 16.4 µM,
CN(CC(=O)Nc1ccccc1Cl)CC(=O)Nc1sc2c(c1C(N)=O)CCC2,active: 18.4 µM,
COc1ccc(S(=O)(=O)N2CCC(C(=O)Nc3cc(C(F)(F)F)ccc3Cl)CC2)cc1,active: 16.4 µM,
O=c1[nH]c(=O)n([C@H]2C[C@H](O)[C@@H](CO)O2)cc1F,active: 2.1 nM and active: 3 nM and active: 36.6 nM,
CN(NS(=O)(=O)c1ccccc1)c1nc2ccccc2nc1C(F)(F)F,inactive,
CC(O)CNc1ncnc2cc(-c3ccc(F)cc3)sc12 (stereo not given),"inconclusive: 29.1 µM [inhibitor, single point]",
CSc1ccc(/C=N/NC(=O)c2ccc3nc[nH]c3c2)cc1,"inconclusive: 29.1 µM [inhibitor, single point]",
N#Cc1ccccc1OCC(=O)OCC(=O)NC1CC1,inactive,
CCC(C)N1C(=O)/C(=C/c2c(NCCCOC(C)C)nc3c(C)cccn3c2=O)SC1=S (stereo not given),active: 9.2 µM,
Cc1cc(C(=O)CSc2nnnn2-c2ccc(O)cc2)c(C)n1Cc1ccc2c(c1)OCO2,"inconclusive: 9.2 µM [inhibitor, partial curve]",
CCCCCNC(=O)C1C(=O)Nc2ccccc2C(=O)N1c1c(C)cccc1C (stereo not given),inactive,
CCCOc1ccc(-c2cc(C(F)(F)F)c(C#N)c(SCCC(=O)O)n2)cc1,"inconclusive: 29.1 µM [inhibitor, single point]",
COc1ccc(C(F)(F)F)cc1N/C=C\c1nnnn1-c1ccccc1,"inconclusive: 29.1 µM [inhibitor, single point]",
COc1ccc(C2CC3(CC(C)(C)NC(=O)N3)Oc3cc(O)ccc32)cc1 (stereo not given),"inconclusive: 16.4 µM [inhibitor, partial curve]",
Cc1ccc(S(=O)(=O)c2c(C)cc(C)nc2N2CCCC2)cc1,"inconclusive: 29.1 µM [inhibitor, single point]",
COc1cc(/C=C(\C#N)c2ccccn2)ccc1OCc1ccccc1,,inconclusive: -30.5% [inhibitor]
Cc1ccc(S(=O)(=O)C(CNC(=O)COc2ccccc2)c2ccco2)cc1 (stereo not given),"inconclusive: 25.9 µM [inhibitor, single point]",
CC(C)CCNC(=O)C(Cc1ccccc1)NS(=O)(=O)c1ccc2c(c1)c(=O)n(C)c(=O)n2C (stereo not given),"inconclusive: 18.4 µM [inhibitor, single point] and inconclusive: 29.1 µM [inhibitor, single point]",
Nc1nc(N)c2cc(S(=O)(=O)c3ccc4ccccc4c3)ccc2n1,active: 1.84 µM,
CNC(=S)N(CCc1c(C)[nH]c2ccc(C)cc12)Cc1cc(OC)c(OC)c(OC)c1,active: 14.6 µM,
Cc1nc2ccccc2nc1OCc1ccc([N+](=O)[O-])cc1,,inconclusive: -33% [inhibitor]
CCCCONc1ncnc2nonc12,inactive,
COc1ccccc1N1CCN(C(CNS(=O)(=O)c2ccccc2)c2cccnc2)CC1 (stereo not given),active: 18.4 µM,

Structure (SMILES),Potency,"activity change, negative = growth inhibition"
CN(CCc1ccccc1)C(=O)c1cc(COc2cccc(C(F)(F)F)c2)on1,"inconclusive: 20.6 µM [inhibitor, single point]",
COc1ccc(CCC(C)NCc2ccccc2OC)cc1 (stereo not given),"inconclusive: 23.1 µM [inhibitor, partial curve, poor fit]",
Nc1ccccc1C#CCCCCO,inactive,
O=C(NCc1ccon1)c1ccc(OC2CCN(CCc3ccccc3)CC2)cc1,"inconclusive: 25.9 µM [inhibitor, single point]",
O=C(NCCS(=O)(=O)c1ccc(Br)cc1)c1ccc(Cl)cc1Cl,inactive,
Cc1oc(-c2ccccc2)cc1C(=O)Nc1cccc(/C=C\C(=O)O)c1,"inconclusive: 6.51 µM [inhibitor, full curve]",
COc1ccc(NC(=O)c2cc([N+](=O)[O-])ccc2O)cc1,active: 5.8 µM,
CNc1ncnc2sc(-c3ccccc3)cc12,"inconclusive: 25.9 µM [inhibitor, single point]",
CCc1c(C)nc2c(-c3ccccc3)c(-c3ccccc3)[nH]n2c1=O,active: 2.06 µM,
Cc1ccc(NC(=O)CSc2nccn2Cc2ccccc2)cc1C,active: 20.6 µM,
COc1ccc(/C=C2\SC(=O)N(CCNC(=O)Cc3coc4cc(C)ccc34)C2=O)cc1OC,"inconclusive: 18.4 µM [inhibitor, single point]",
O=C(CSc1ccccn1)N1CCN(c2ccc(Cl)cc2)CC1,"inconclusive: 29.1 µM [inhibitor, single point]",
CN1CCc2c(C#N)c(N3CCCCC3)nc(NCc3ccccc3)c2C1,"inconclusive: 25.9 µM [inhibitor, single point]",
Fc1ccc(C2C3=C(Nc4ncnn42)c2ccccc2OC3c2ccncc2)cc1 (stereo not given),"inconclusive: 29.1 µM [inhibitor, single point]",
COc1ccc(N2C(=O)Cc3c2nc(N)c(C#N)c3N)cc1,inactive,
Cc1ccc(S(=O)(=O)N2CCOCC2)cc1C(=O)NCc1ccccn1,inactive,
Cc1cccnc1NC(=O)CN1C(=O)NC(C)(c2ccc3ccccc3c2)C1=O (stereo not given),inactive,
CS(=O)(=O)N1CCc2cc(C(=O)Nc3ccc(C(F)(F)F)cc3)ccc21,active: 8.2 µM,
Cc1noc(C)c1CCC(=O)N1CCOc2ccc(CN3CCN(c4ccccn4)CC3)cc2C1,"inconclusive: 14.6 µM [inhibitor, single point]",
CCOCCCNc1c(CC)c(C)c(C#N)c2nc3ccccc3n12,"inconclusive: 29.1 µM [inhibitor, single point]",
COc1ccc(/C=C/c2cccc[n+]2C)c(O)c1,active: 18.4 µM,
O=C(Nc1ccccc1C(=O)OCc1cc(=O)n2nc(C3CC3)sc2n1)c1cccc(F)c1,inactive,
Cc1ccccc1CN1CCN(C(C)C(=O)NCc2ccccc2)CC1 (stereo not given),"inconclusive: 16.4 µM [inhibitor, single point]",
COc1ccccc1Nc1nnc(SC(C)C(=O)NC2CC2)s1 (stereo not given),inactive,
CC(C)C[C@H]1CN(CCCC[C@H]2CNC(=O)C(=O)N2CC2CCCCC2)C(=O)C(=O)N1CCc1ccc(O)cc1,inactive,
